Experimental findings from the supplement of paper PMC12067093, “Discovery and optimisation of a covalent ligand for TRIM25 and its application to targeted protein ubiquitination” (Chemical Science, 2025) are described below.

Of roughly 21,000 targets only a part is listed; those with the largest changes were picked by preference.

Compound in the experiment: CC1Cc2ccccc2N1C(=O)C1CCCN(C1)C(=O)CCl (mixture of isomers) [TRIM25 ligand 11 (diastereomer mixture)]
In words: probe-labelled cysteine peptide fold change vs DMSO (competition) (log2 fold change); higher = less target engagement (more negative = stronger competition). As to conditions: THP-1, incubation time: 4 h.
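Note: competitive chemoproteomic profiling in live THP-1 cells with an iodoacetamide desthiobiotin (IA-DTB) probe, comparing probe-labelled peptide intensities in compound-treated cells against DMSO-treated controls.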

Chain of UniProt Q9H9A7 (Q9H9A7 whole entry, looked up): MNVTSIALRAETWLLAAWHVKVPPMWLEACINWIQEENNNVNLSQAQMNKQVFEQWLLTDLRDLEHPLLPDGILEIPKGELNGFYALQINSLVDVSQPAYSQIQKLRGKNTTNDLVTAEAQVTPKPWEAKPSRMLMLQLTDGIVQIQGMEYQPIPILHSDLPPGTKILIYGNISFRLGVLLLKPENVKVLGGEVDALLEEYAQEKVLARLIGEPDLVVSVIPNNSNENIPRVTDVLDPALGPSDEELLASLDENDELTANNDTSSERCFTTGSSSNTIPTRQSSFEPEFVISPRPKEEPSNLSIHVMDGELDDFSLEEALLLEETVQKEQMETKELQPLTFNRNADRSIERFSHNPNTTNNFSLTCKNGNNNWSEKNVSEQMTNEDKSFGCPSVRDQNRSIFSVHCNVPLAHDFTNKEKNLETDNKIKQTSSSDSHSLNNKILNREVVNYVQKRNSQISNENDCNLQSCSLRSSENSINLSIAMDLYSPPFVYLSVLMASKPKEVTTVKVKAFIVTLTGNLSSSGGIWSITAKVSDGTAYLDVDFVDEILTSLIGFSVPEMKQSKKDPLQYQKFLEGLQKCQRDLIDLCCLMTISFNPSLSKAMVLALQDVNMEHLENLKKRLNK
Chain of UniProt P40938 (P40938 whole entry, looked up): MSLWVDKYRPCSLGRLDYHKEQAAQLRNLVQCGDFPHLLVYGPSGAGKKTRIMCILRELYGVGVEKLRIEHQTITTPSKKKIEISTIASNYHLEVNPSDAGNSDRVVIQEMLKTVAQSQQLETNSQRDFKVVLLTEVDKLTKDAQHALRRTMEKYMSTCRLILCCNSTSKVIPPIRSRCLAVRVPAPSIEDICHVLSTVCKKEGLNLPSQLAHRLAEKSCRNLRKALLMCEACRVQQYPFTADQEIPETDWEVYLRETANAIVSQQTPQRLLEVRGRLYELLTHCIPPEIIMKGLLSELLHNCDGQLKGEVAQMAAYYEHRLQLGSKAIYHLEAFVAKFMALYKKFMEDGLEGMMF
Chain of UniProt Q86X10 (Q86X10 whole entry, looked up): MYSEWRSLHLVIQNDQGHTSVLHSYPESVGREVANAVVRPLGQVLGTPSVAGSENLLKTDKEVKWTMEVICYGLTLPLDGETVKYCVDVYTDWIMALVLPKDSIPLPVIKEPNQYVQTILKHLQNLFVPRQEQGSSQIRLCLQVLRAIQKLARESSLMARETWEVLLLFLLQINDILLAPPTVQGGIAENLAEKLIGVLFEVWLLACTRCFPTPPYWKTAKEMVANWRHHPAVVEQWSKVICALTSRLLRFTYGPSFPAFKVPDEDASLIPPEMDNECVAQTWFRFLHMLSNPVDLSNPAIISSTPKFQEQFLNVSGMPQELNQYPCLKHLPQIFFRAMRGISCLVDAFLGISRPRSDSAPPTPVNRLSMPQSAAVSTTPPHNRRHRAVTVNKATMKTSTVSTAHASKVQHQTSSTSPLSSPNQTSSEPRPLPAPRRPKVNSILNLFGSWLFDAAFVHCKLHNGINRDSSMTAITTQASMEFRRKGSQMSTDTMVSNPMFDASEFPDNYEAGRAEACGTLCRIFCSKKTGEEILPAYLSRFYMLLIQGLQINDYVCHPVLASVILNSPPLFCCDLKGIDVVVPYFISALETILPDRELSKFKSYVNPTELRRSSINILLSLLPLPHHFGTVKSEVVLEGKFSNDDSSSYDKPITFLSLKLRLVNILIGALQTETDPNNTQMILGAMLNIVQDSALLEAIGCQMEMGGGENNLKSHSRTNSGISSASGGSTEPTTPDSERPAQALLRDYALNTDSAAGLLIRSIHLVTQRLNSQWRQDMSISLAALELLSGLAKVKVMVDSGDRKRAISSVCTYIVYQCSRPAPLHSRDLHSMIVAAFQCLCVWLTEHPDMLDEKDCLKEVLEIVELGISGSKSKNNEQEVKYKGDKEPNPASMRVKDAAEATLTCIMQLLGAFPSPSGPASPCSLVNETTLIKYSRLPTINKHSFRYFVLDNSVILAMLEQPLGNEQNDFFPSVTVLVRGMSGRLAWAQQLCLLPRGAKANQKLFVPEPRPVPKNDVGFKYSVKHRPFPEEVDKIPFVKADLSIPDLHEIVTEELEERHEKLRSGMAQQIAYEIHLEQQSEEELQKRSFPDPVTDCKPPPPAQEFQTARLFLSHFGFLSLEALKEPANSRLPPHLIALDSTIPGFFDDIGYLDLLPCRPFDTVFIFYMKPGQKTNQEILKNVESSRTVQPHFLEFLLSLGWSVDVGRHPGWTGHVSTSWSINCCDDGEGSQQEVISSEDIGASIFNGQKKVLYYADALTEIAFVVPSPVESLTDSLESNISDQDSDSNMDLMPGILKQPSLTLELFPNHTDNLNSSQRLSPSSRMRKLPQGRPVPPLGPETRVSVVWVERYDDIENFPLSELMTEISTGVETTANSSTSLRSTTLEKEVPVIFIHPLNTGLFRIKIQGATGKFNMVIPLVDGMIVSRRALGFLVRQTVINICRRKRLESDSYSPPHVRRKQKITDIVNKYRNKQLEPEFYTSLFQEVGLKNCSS
Chain of UniProt P62834 (P62834 whole entry, looked up): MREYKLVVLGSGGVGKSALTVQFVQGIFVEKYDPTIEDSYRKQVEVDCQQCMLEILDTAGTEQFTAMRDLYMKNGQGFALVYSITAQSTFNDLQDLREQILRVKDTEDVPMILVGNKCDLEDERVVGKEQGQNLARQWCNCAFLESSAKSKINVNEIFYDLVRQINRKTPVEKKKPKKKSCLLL
Chain of UniProt Q99460 (Q99460 whole entry, looked up): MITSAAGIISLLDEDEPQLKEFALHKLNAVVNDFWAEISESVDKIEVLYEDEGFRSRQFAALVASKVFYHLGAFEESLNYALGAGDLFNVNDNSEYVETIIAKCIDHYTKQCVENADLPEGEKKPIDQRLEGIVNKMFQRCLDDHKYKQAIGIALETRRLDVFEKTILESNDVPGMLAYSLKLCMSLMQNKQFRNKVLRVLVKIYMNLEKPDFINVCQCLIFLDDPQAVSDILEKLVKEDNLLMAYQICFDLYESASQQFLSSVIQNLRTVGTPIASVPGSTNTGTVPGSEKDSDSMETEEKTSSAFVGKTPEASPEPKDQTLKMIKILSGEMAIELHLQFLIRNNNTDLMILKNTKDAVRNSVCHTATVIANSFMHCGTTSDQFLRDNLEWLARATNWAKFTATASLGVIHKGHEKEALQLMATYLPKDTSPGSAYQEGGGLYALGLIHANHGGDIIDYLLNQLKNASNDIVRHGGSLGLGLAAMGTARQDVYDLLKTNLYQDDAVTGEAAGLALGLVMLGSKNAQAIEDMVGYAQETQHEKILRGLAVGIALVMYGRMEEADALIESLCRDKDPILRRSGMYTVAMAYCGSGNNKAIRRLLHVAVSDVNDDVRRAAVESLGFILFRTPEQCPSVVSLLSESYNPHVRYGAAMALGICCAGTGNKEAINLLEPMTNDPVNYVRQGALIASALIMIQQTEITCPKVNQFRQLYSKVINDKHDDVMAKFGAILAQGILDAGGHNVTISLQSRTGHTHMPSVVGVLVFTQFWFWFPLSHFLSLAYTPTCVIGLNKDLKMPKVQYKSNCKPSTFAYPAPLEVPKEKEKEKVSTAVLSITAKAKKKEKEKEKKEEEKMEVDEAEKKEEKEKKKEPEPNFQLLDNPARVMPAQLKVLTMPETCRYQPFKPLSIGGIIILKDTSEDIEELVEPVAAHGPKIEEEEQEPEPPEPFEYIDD
Chain of UniProt Q9H2M9 (Q9H2M9 whole entry, looked up): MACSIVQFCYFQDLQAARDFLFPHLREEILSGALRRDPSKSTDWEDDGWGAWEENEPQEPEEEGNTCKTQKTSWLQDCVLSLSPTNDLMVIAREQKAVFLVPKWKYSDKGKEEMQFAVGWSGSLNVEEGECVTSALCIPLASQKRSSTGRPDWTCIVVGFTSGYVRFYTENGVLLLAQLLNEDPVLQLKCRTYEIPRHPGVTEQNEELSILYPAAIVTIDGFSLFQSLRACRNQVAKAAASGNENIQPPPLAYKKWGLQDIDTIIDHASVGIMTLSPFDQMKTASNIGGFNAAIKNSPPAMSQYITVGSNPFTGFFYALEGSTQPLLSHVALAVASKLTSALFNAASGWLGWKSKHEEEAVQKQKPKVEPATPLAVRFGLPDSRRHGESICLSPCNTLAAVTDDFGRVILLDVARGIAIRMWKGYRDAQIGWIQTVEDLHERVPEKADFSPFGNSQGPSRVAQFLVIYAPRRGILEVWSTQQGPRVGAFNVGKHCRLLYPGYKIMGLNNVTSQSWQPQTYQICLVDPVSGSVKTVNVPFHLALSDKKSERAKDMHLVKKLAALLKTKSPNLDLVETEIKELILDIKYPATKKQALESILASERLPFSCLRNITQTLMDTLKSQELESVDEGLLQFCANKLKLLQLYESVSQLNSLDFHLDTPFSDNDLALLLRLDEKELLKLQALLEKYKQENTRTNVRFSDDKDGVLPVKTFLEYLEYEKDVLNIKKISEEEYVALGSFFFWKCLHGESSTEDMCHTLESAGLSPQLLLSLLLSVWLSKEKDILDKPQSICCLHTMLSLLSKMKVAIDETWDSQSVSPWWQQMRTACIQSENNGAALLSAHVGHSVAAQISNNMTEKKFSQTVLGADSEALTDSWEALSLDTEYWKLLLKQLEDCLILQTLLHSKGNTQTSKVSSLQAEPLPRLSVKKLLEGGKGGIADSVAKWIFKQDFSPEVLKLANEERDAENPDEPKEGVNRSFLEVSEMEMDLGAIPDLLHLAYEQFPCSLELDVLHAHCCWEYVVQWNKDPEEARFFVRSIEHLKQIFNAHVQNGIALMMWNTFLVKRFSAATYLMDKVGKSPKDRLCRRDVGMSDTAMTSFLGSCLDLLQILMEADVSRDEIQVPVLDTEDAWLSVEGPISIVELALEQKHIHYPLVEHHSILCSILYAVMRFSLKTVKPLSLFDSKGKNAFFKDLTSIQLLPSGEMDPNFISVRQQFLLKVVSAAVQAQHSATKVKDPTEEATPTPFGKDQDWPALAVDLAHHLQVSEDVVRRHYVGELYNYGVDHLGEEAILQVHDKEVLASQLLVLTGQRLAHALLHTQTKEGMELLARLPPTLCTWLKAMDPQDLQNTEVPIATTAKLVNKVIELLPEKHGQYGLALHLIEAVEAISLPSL

On to “RANBP2_P49792_815_MICQQVEAIKK (UniProt P49792)”, for which the “probe-labelled cysteine peptide fold change” value is -0.0489 (10 µM) and -0.134 (50 µM).

For “RAB3GAP2_Q9H2M9_828_TACIQSENNGAALLSAHVGHSVAAQISNNMTEK (UniProt Q9H2M9)”, the “probe-labelled cysteine peptide fold change” value is 0.106 (10 µM) and -0.168 (50 µM).

“RGS12_O14924_930_EHGDHADDALHANGGLCR (UniProt O14924)”: the “probe-labelled cysteine peptide fold change” value reads like this: (10 µM) 0.64; (50 µM) 0.263.

As to “RMI1_Q9H9A7_268_CFTTGSSSNTIPTR (UniProt Q9H9A7)”, the “probe-labelled cysteine peptide fold change” value is 0.0146 (10 µM) and -0.205 (50 µM).

Consider “RAP1A_P62834_118_VKDTEDVPMILVGNKCDLEDER (UniProt P62834)”, for which the “probe-labelled cysteine peptide fold change” value was -0.561 (10 µM) and -0.473 (50 µM).

Regarding “RAB33A_Q14088_57_FCGGTFPDK (UniProt Q14088)”, the “probe-labelled cysteine peptide fold change” value is 0.204 (10 µM) and 0.327 (50 µM).

“PSMD1_Q99460_660_YGAAMALGICCAGTGNK (UniProt Q99460)”: the “probe-labelled cysteine peptide fold change” value reads like this: (10 µM) 0.108; (50 µM) 0.0435.

For the target “RBM39_Q14498_478_CPSIAAAIAAVNALHGR (UniProt Q14498)”, the “probe-labelled cysteine peptide fold change” value (10 µM) is -0.11 and the “probe-labelled cysteine peptide fold change” value (50 µM) is -0.0358.

For “RNH1_P13489_12_SLDIQSLDIQCEELSDAR (UniProt P13489)”, the “probe-labelled cysteine peptide fold change” value reads like this: (10 µM) 1.15; (50 µM) 0.678.

Consider “RALGAPB_Q86X10_1096_SFPDPVTDCKPPPPAQEFQTAR (UniProt Q86X10)”, for which the “probe-labelled cysteine peptide fold change” value is, setting by setting: (10 µM) -0.0494; (50 µM) 0.0696.

In the case of “RPL7_P18124_186_SLGKYGIICMEDLIHEIYTVGKR (UniProt P18124)”, the “probe-labelled cysteine peptide fold change” value is -0.462 (10 µM) and -0.587 (50 µM).

In the case of “RCSD1_Q6JBY9_181_RSQSDCGELGDFR (UniProt Q6JBY9)”, the “probe-labelled cysteine peptide fold change” value runs as follows: (10 µM) -0.286; (50 µM) -0.728.

In the case of “RFC3_P40938_32_NLVQCGDFPHLLVYGPSGAGKK (UniProt P40938)”, the “probe-labelled cysteine peptide fold change” value is 0.0273 (10 µM) and -0.0261 (50 µM).

For “RLF_Q13129_773_CELNGCNIVFSDLGQLYHHEAQHFR (UniProt Q13129)”, the “probe-labelled cysteine peptide fold change” value is, setting by setting: (10 µM) 0.133; (50 µM) 0.0282.
